Assay results reported in paper PMC7025033.
These are yes or no findings as the source states them, for the method shown. Binding seen in cells or lysates may run through a third protein. Some results given as binding are weak or reduced against the parent protein; the word gives no strength. One block for each molecule: values may come before it.

Sequences of proteins named here, by UniProt entry; tags and fusion partners are left off. A change or cut given only in a name is not applied to a line headed by its entry. Residues count along the entry.
UniProt Q9ULZ3: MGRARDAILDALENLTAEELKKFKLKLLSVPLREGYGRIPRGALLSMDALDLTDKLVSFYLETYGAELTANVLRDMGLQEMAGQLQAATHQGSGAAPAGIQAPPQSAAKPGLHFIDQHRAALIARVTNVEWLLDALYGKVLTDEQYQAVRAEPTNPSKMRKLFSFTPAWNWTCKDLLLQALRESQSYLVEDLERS
UniProt Q9Y2G2, residues 446-536: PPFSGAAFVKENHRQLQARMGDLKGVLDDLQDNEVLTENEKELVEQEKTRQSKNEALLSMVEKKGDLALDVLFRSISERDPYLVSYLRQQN

How the values were obtained:
Assay in all cases: split reporter; NanoBiT: sonicated, clarified PBS lysates of HEK 293T cells with the SmBiT fusion and with the LgBiT fusion, normalised for expression, mixed in equal volumes in 384-well plates; Nano-Glo Live Cell Reagent; relative luminescence
[1] = biological target: CARD domain of caspase-1 (human) (UniProt P29466)
[2] = biological target: SmBiT-tagged full-length ASC (human) (UniProt Q9ULZ3)
[3] = biological target: CARD domain of ASC (apoptosis-associated speck-like protein containing a CARD) (human) (UniProt Q9ULZ3)
[4] = biological target: T1, CARD domain of caspase-1 (human), P29466; conditions: remark: other sources report otherwise
T1 chain: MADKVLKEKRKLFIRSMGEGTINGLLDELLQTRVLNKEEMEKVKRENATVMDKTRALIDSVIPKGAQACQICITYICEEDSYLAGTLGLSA

Molecule: CARD domain of CARD8 (from UniProt Q9Y2G2 446-536) (domain or fragment)
binding [2]: no binding
binding [1]: binds
binding [3]: no binding

Molecule: CARD domain of caspase-1 (from UniProt P29466 1-91) (domain or fragment)
binding [3]: binds

B1: CARD domain of NLRP1 (domain or fragment, UniProt Q9C000 1374-1463)
chain: DAPQLLHFVDQYREQLIARVTSVEVVLDKLHGQVLSQEQYERVLAENTRPSQMRKLFSLSQSWDRKCKDGLYQALKETHPHLIMELWEKG
binding [2]: binds
binding [1]: no binding
binding [3]: binds

Further lines, results first:

binding [1]: binds
Molecule: CARD domain of ASC (apoptosis-associated speck-like protein containing a CARD) (from UniProt Q9ULZ3 107-195) (domain or fragment)

binding [4]: binds
B2: CARD domain of caspase-1, P29466 1-91 (domain or fragment)
chain: T1 chain
